Reference: PubChem BioAssay AID2675 (National Center for Advancing Translational Sciences (NCATS), 2010)
About 100 (0.036%) of roughly 280,000 compounds were called active. The inconclusive results got no clear call from the source; some entries with a clear call stand among them for comparison. Calls follow the shape of the dose curve; as a rule, active = well fitted inhibition curve with a large enough effect in the signal ratio, with a control signal flat (not every such curve was filed as active); inconclusive = small, poorly fitted or top-dose-only effect, or effect the other way, or a change in a side signal; inactive = no such curve, though single readings can be large or run the other way; the % refers to the signal ratio. Where the call is inconclusive, the potency comes from a doubtful curve fit. A note “side channel” means that the fit belongs to a control or component signal, not to the main read-out.

What follows are molecules tested against Muscleblind-like protein 1 (Homo sapiens) (UniProt Q9NR56) (assay: qHTS Assay for Inhibitors of MBNL1-poly(CUG) RNA binding). Conditions: TR-FRET MBNL1-His/biotin-(CUG)12 binding, 665/545 ratio; activity change, negative = inhibition: at 57.5 µM (top of the series).
Method in brief: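 Inhibition of protein-RNA binding appears as loss of TR-FRET between terbium anti-His antibody on MBNL1-His and streptavidin-XL665 on biotin-(CUG)12. Activity is normalized to buffer-only and uninhibited-complex controls.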
% is scaled to controls: 0 for no effect and ±100 for the full control effect; potency is read from the fitted curve at half-maximal effect; tags tell the direction and shape of the fitted curve or compound fluorescence and quenching.

Sequence of UniProt Q9NR56 (Q9NR56 whole entry, looked up): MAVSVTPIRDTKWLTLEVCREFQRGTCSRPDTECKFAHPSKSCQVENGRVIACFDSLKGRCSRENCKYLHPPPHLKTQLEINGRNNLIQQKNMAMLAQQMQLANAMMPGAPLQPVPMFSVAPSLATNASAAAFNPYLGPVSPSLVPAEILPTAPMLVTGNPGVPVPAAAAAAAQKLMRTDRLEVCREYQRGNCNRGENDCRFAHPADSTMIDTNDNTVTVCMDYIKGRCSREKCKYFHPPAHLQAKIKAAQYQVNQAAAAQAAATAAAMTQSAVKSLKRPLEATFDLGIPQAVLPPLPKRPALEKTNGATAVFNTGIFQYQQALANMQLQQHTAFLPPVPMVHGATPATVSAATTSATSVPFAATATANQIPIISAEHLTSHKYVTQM

SMILES | Potency | activity change, negative = inhibition
Cc1ccc(CNC(=O)c2ccc(Cl)cc2[N+](=O)[O-])cc1 | inconclusive: 35.5 µM [quencher, side channel, single point] | 
CCc1ccc2c(c1)c(N=NC1=NC(=O)CS1)c(O)n2CC | inconclusive: 28.2 µM [quencher, side channel, partial curve] | 
Cc1ccc(N2C(=O)c3ccccc3C2C(=O)c2cc(C)ccc2O)cc1 (stereo unspecified) | inconclusive: 39.8 µM [quencher, side channel, single point] | 
COc1ccc(/C=C/c2n[nH]c(=O)c(C#N)c2C)cc1 | inconclusive: 25.1 µM [quencher, side channel, partial curve] | 
CCn1cc(/C=N\NC(=O)c2ccc(Cl)cc2)cn1 |  | inactive: 8.57%
Oc1ccc2ccccc2c1/C=N/n1cnnc1 | inconclusive: 39.8 µM [quencher, single point] | 
CC1(C)CC(=O)C(C(=O)/C=C/c2ccco2)C(=O)C1 |  | inactive: -5.08%
O=[N+]([O-])c1cccc(OCCN2CCC(Cc3ccccc3)CC2)c1 | inconclusive: 22.4 µM [quencher, side channel, partial curve] | 
Cc1nc(NC(=O)COc2ccccc2)sc1C(=O)Nc1ccccc1 | inconclusive: 39.8 µM [fluorescent, side channel, partial curve] | 
COc1ccc(C2c3[nH]c4ccccc4c3CCN2C(=O)c2ccc(=O)n(C)n2)c(F)c1 (stereo unspecified) |  | inactive: 2.47%
CC(=O)n1cc(N(C(=O)CCl)c2ccc(Cl)cc2)c2ccccc21 |  | inactive: -4.09%
COc1cccc(CNC(=O)C2CCC(CNS(=O)(=O)c3cccc4nsnc34)CC2)c1 (stereo unspecified) | inconclusive: 12.6 µM [quencher, side channel, partial curve] | 
Brc1ccc(Oc2nsnc2N2CCOCC2)cc1 |  | inactive: -9.05%
O=C(c1ccccc1)c1cc2ccccc2oc1=O | inconclusive: 25.1 µM [quencher, side channel, partial curve] | 
Cc1ccc2cccc(OCc3ccc(F)cc3)c2n1 |  | inactive: 12.8%
COCCN1C(=O)C(=O)/C(=C(/O)c2cccc(OC)c2)C1c1ccncc1 (stereo unspecified) | inconclusive: 25.1 µM [quencher, side channel, partial curve] | 
CN1CCc2c(sc(/N=C/c3c[nH]c4ccccc34)c2C(N)=O)C1 | inconclusive: 10 µM [quencher, side channel, partial curve] | 
C=CCNC(=O)C(=O)NCC(c1ccc2c(c1)OCO2)N1CCN(c2ccc(F)cc2)CC1 (stereo unspecified) |  | inactive: 1.61%
N#Cc1c(-c2ccccc2)cc2nc3ccccc3n2c1N |  | inactive: 23.2%
CN1CCc2c(sc3c2C(=O)NC(c2ccc4c(c2)OCO4)N3)C1 (stereo unspecified) | inconclusive: 3.16 µM [quencher, side channel, single point] | 
Cc1ccc(CSc2nncn2-c2ccccn2)cc1 | inconclusive: 8.91 µM [quencher, side channel, single point] | 

SMILES | Potency | activity change, negative = inhibition
O=C1CCC/C(=N\NC(=O)c2ccc(CSc3cccc4cccnc34)cc2)C1 | inconclusive: 17.8 µM [quencher, side channel, partial curve] | 
CN(C)S(=O)(=O)c1cccc(NC(=O)c2ccc(N3CCOCC3)c([N+](=O)[O-])c2)c1 | inconclusive: 35.5 µM [quencher, side channel, partial curve] | 
O=C(N/N=C/c1cccs1)c1[nH]ncc1Br | inconclusive: 39.8 µM [quencher, side channel, single point] | 
NS(=O)(=O)c1ccc(CNC(=O)c2cc(-c3cccnc3)nc3ccccc23)cc1 | inconclusive: 15.8 µM [quencher, single point] | 
CCc1nnc(N2C(=O)c3cccc4cccc(c34)C2=O)s1 | inconclusive: 3.55 µM [quencher, full curve] | 
Cc1cc(C)c2cc(C#N)c(SCC(=O)NCc3ccco3)nc2c1 | inconclusive: 28.2 µM [quencher, side channel, partial curve] | 
O=C(Nc1ccc2c(c1)C(=O)NC2=O)c1ccccc1Cl | inconclusive: 15.8 µM [quencher, side channel, partial curve] | 
Nc1nnnn1CC(=O)N/N=C/C=C/c1ccccc1 | inconclusive: 12.6 µM [quencher, side channel, partial curve, poor fit] | 
O=C(CN1C(=O)N/C(=C\c2ccccc2OCc2ccc(C(=O)O)cc2)C1=O)Nc1ccccc1F | inconclusive: 14.1 µM [quencher, side channel, partial curve] | 
COc1cc(-c2nc3ccccn3c2/N=C/c2ccc(F)cc2)ccc1O | inconclusive: 20 µM [quencher, side channel, partial curve] | 
COc1cc(C(=O)NCc2ccccc2)cc(Br)c1OC | inconclusive: 0.1 µM [inhibitor, full curve, poor fit] | 
COc1ccccc1-n1c(=S)[nH]c2c(sc(=S)n2-c2ccccc2C)c1=O | inconclusive: 31.6 µM [quencher, side channel, single point] | 
CCOC(=O)c1c(NC(=O)CN2C(=O)NC3(CCCCCC3)C2=O)sc(C)c1-c1ccc(C)cc1 | inconclusive: 25.1 µM [fluorescent, side channel, partial curve] | 
Cc1ccc(Nc2nc(Nc3ccc(C)cc3)nc(SC3=NCCS3)n2)cc1 |  | inactive: -9.74%
OCCCNc1ncnc2sc(-c3ccccc3)cc12 | inconclusive: 28.2 µM [quencher, side channel, single point] | 
Cc1ccccc1N1CCN(S(=O)(=O)c2ccc3ccccc3c2)CC1 |  | inactive: -4.39%
C/C(=N\NC(=O)c1ccc(C)cc1)C1C(=O)c2ccccc2C1=O | inconclusive: 10 µM [quencher, side channel, partial curve, poor fit] | 
Cc1nc(NC(=O)C2CC2)sc1C(=O)N(C)C | inconclusive: 79.4 µM [inhibitor, partial curve] | 
O=C(COc1ccc2ccccc2c1)NCCn1ccc2ccccc21 |  | inactive: 1.05%
CCOC(=O)N1CCN(C(=O)C(NS(=O)(=O)c2cccc3nsnc23)c2ccccc2)CC1 (stereo unspecified) | inconclusive: 10 µM [quencher, partial curve] | 
